Reference: patent US8633183B2 (priority 2010, dated 2014)

System: U87MG human glioblastoma cell line
Assay: cells
Conditions: U-87 MG, read-out: EC50 U87MG

| Structure (SMILES) | EC50 [µM] |
| --- | --- |
| CCc1ncnc(-c2ccc(C(=O)N3CC[C@H](N(C)C)C3)c(C)c2)c1C#Cc1ccc(N)nc1 [Example E-99] | 0.27 |
| CCc1ncnc(-c2ccc(C(=O)N3CCCN(C)CC3)c(C)c2)c1C#Cc1ccc(N)nc1 [Example E-129] | 0.0864 |
| CCc1ncnc(-c2ccc(C(=O)N3CCC4(CCN(C)C4)C3)c(OC)c2)c1C#Cc1ccc(N)nc1 (centres unmarked) [Example E-66] | 0.716 |
| CCOC(=O)N1CCN(C(=O)c2ccc(-c3ncnc(CC)c3C#Cc3ccc(N)nc3)cc2OC)CC1 [Example E-62] | 0.269 |
| CCc1ncnc(-c2ccc(C(=O)NCC3(C)COC3)c(C)c2)c1C#Cc1ccc(N)nc1 [Example E-134] | 0.0348 |
| CCc1ncnc(-c2ccc(C(=O)N3CCCO3)c(C)c2)c1C#Cc1ccc(N)nc1 [Example E-94] | 0.119 |
| CCc1ncnc(-c2ccc(C(=O)N3CCN4CCC[C@@H]4C3)c(Cl)c2)c1C#Cc1ccc(N)nc1 [Example E-139] | 0.0742 |
| CCc1ncnc(-c2ccc(C(=O)N(C)OC)c(OC)c2)c1C#Cc1ccc(N)nc1 [Example E-60] | 0.124 |
| CCc1ncnc(-c2ccc(C(=O)N3CCCC(O)C3)c(Cl)c2)c1C#Cc1ccc(N)nc1 (centres unmarked) [Example E-29] | 0.0696 |
| CCc1ncnc(-c2ccc(C(=O)N3CCN(C4CCS(=O)(=O)C4)CC3)c(OC)c2)c1C#Cc1ccc(N)nc1 (centres unmarked) [Example E-54] | 0.515 |
| CCc1ncnc(-c2cc(F)c(C(=O)N3CCCC3)c(F)c2)c1C#Cc1ccc(N)nc1 [Example E-11] | 0.0798 |
| CCc1ncnc(-c2ccc(C(=O)N3CCOCC3)c(C)c2)c1C#Cc1ccc(N)nc1 [Example E-92] | 0.123 |
| CCc1ncnc(-c2ccc(C(=O)N3CCC(C(C)(C)O)CC3)c(Cl)c2)c1C#Cc1ccc(N)nc1 [Example E-20] | 0.0553 |
| CCc1ncnc(-c2ccc(C(=O)N3CCN(C(C)=O)CC3)c(C)c2)c1C#Cc1ccc(N)nc1 [Example E-108] | 0.143 |
| CCc1ncnc(-c2ccc(C(=O)N3CCC(N4CCC(C)CC4)C3)c(Cl)c2)c1C#Cc1ccc(N)nc1 (centres unmarked) [Example E-76] | 0.1 |
| CCc1ncnc(-c2ccc(C(=O)N3CC[C@H](O)C3)c(Cl)c2)c1C#Cc1ccc(N)nc1 [Example E-27] | 0.149 |
| CCc1ncnc(-c2ccc(C(=O)N3CCOC(C)(C)C3)c(F)c2)c1C#Cc1ccc(N)nc1 [Example E-15] | 0.0642 |
| CCc1ncnc(-c2ccc(C(=O)N3CCCOCC3)c(C)c2)c1C#Cc1ccc(N)nc1 [Example E-133] | 0.0431 |
| CCc1ncnc(-c2ccc(C(=O)NCC3(C)COC3)c(Cl)c2)c1C#Cc1ccc(N)nc1 [Example E-41] | 0.078 |
| CCc1ncnc(-c2ccc(C(=O)N3CCN4CCCCC4C3)c(OC)c2)c1C#Cc1ccc(N)nc1 (centres unmarked) [Example E-57] | 0.202 |
| CCc1ncnc(-c2ccc(C(=O)N3CCC(N4CCCCCC4)CC3)c(OC)c2)c1C#Cc1ccc(N)nc1 [Example E-58] | 0.45 |
| CCc1ncnc(-c2ccc(C(=O)N3CCC4(CCN(C)CC4)CC3)c(C)c2)c1C#Cc1ccc(N)nc1 [Example E-97] | 0.29 |
| CCc1ncnc(-c2ccc(C(=O)N3CCNCC3)c(C)c2)c1C#Cc1ccc(N)nc1 [Example E-127] | 0.0678 |
| CCc1ncnc(-c2ccc(C(=O)N3CCN(c4ccncc4)CC3)c(C)c2)c1C#Cc1ccc(N)nc1 [Example E-131] | 0.0827 |
| CCc1ncnc(-c2ccc(C(=O)NCCN3CCOCC3)c(OC)c2)c1C#Cc1ccc(N)nc1 [Example E-64] | 0.226 |

| Structure (SMILES) | EC50 [µM] |
| --- | --- |
| CCc1ncnc(-c2ccc(C(=O)N3CC[S+]([O-])CC3)c(C)c2)c1C#Cc1ccc(N)nc1 [Example E-121] | 0.0536 |
| CCc1ncnc(-c2ccc(C(=O)N3CCN(S(=O)(=O)CC)CC3)c(Cl)c2)c1C#Cc1ccc(N)nc1 [Example E-81] | 0.0343 |
| CCc1ncnc(-c2ccc(C(=O)N(C)C3CCS(=O)(=O)C3)c(OC)c2)c1C#Cc1ccc(N)nc1 (centres unmarked) [Example E-61] | 0.243 |
| CCc1ncnc(-c2ccc(C(=O)NC3CCCN(C)C3)c(Cl)c2)c1C#Cc1ccc(N)nc1 (centres unmarked) [Example E-22] | 0.225 |
| CCc1ncnc(-c2ccc(C(=O)N3CCC(O)CC3)c(Cl)c2)c1C#Cc1ccc(N)nc1 [Example E-38] | 0.137 |
| CCc1ncnc(-c2ccc(C(=O)N(C)CCN3CCCC3=O)c(OC)c2)c1C#Cc1ccc(N)nc1 [Example E-65] | 0.444 |
| CCc1ncnc(-c2ccc(C(=O)N3CCC(O)CC3)c(C)c2)c1C#Cc1ccc(N)nc1 [Example E-132] | 0.0697 |
| CCc1ncnc(-c2ccc(C(=O)N3CCNCC3)c(Cl)c2)c1C#Cc1ccc(N)nc1 [Example E-34] | 0.174 |
| CCc1ncnc(-c2ccc(C(=O)N(C)OC)c(Cl)c2)c1C#Cc1ccc(N)nc1 [Example E-79] | 0.0779 |
| CCc1ncnc(-c2ccc(C(=O)N3CCC(N4CCC(C)CC4)C3)c(C)c2)c1C#Cc1ccc(N)nc1 (centres unmarked) [Example E-96] | 0.125 |
| CCc1ncnc(-c2ccc(C(=O)N3CCCOCC3)c(Cl)c2)c1C#Cc1ccc(N)nc1 [Example E-39] | 0.0756 |
| CCc1ncnc(-c2ccc(C(=O)N3CCC(N(C)C)CC3)c(OC)c2)c1C#Cc1ccc(N)nc1 [Example E-59] | 0.481 |
| CCc1ncnc(-c2ccc(C(=O)N3CCN(CC4CCCCC4)CC3)c(C)c2)c1C#Cc1ccc(N)nc1 [Example E-113] | 0.356 |
| CCc1ncnc(-c2ccc(C(=O)N3CCCC(N(C)C)C3)c(C)c2)c1C#Cc1ccc(N)nc1 (centres unmarked) [Example E-95] | 0.267 |
| CCc1ncnc(-c2ccc(C(=O)N3CCC(C4CCN(C)CC4)CC3)c(C)c2)c1C#Cc1ccc(N)nc1 [Example E-119] | 0.045 |
| CCc1ncnc(-c2ccc(C(=O)N(C)CCN3CCCC3=O)c(C)c2)c1C#Cc1ccc(N)nc1 [Example E-111] | 0.267 |
| CCc1ncnc(-c2ccc(C(=O)N3CCC4(CCN(C)C4)C3)c(C)c2)c1C#Cc1ccc(N)nc1 (centres unmarked) [Example E-112] | 0.336 |
| CCc1ncnc(-c2ccc(C(=O)N3CCN(Cc4ccccc4)CC3)c(C)c2)c1C#Cc1ccc(N)nc1 [Example E-115] | 0.153 |
| CCc1ncnc(-c2ccc(C(=O)N3CCC4(CC3)OCCCO4)c(C)c2)c1C#Cc1ccc(N)nc1 [Example E-117] | 0.0267 |
| CCc1ncnc(-c2ccc(C(=O)N3CCC(N4CCCCCC4)CC3)c(C)c2)c1C#Cc1ccc(N)nc1 [Example E-102] | 0.109 |
| CCc1ncnc(-c2ccc(C(=O)N3CCC[C@H]3CO)c(F)c2)c1C#Cc1ccc(N)nc1 [Example E-17] | 0.0965 |
| CCc1ncnc(-c2ccc(C(=O)N3CCC(N(C)C)CC3)c(C)c2)c1C#Cc1ccc(N)nc1 [Example E-103] | 0.21 |
| CCOC(=O)N1CCN(C(=O)c2ccc(-c3ncnc(CC)c3C#Cc3ccc(N)nc3)cc2C)CC1 [Example E-107] | 0.117 |
| CCc1ncnc(-c2ccc(C(=O)N3CCC(N4CCOCC4)CC3)c(C)c2)c1C#Cc1ccc(N)nc1 [Example E-91] | 0.132 |
| CCc1ncnc(-c2ccc(C(=O)N3CCC(C)(O)CC3)c(C)c2)c1C#Cc1ccc(N)nc1 [Example E-122] | 0.0557 |

| Structure (SMILES) | EC50 [µM] |
| --- | --- |
| CCc1ncnc(-c2ccc(C(=O)N3CCCC(N(C)C)C3)c(Cl)c2)c1C#Cc1ccc(N)nc1 (centres unmarked) [Example E-75] | 0.299 |
| CCc1ncnc(-c2ccc(C(=O)N3CCC(N4CCCCC4)CC3)c(C)c2)c1C#Cc1ccc(N)nc1 [Example E-109] | 0.0828 |
| CCc1ncnc(-c2ccc(C(=O)N3CCN(C4CCCC4)CC3)c(OC)c2)c1C#Cc1ccc(N)nc1 [Example E-68] | 0.151 |
| CCc1ncnc(-c2ccc(C(=O)N(C)C3CCS(=O)(=O)C3)c(C)c2)c1C#Cc1ccc(N)nc1 (centres unmarked) [Example E-105] | 0.145 |
| CCc1ncnc(-c2ccc(C(=O)N3CC[C@@H](O)C3)c(Cl)c2)c1C#Cc1ccc(N)nc1 [Example E-28] | 0.229 |
| CCc1ncnc(-c2cc(F)c(C(=O)N3CCN(C(C)(C)C)CC3)c(F)c2)c1C#Cc1ccc(N)nc1 [Example E-8] | 0.084 |
| CCc1ncnc(-c2ccc(C(=O)N3CCN(c4ccncc4)CC3)c(Cl)c2)c1C#Cc1ccc(N)nc1 [Example E-37] | 0.117 |
| CCc1ncnc(-c2ccc(C(=O)N3CCC(N4CCCC4)CC3)c(C)c2)c1C#Cc1ccc(N)nc1 [Example E-126] | 0.089 |
| CCc1ncnc(-c2ccc(C(=O)N3CCC(N(C)C)C3)c(C)c2)c1C#Cc1ccc(N)nc1 (centres unmarked) [Example E-125] | 0.101 |
| CCc1ncnc(-c2ccc(C(=O)N3CCN(CC4CC4)CC3)c(Cl)c2)c1C#Cc1ccc(N)nc1 [Example E-18] | 0.042 |
| CCc1ncnc(-c2ccc(C(=O)N3CCN4CCCCC4C3)c(C)c2)c1C#Cc1ccc(N)nc1 (centres unmarked) [Example E-101] | 0.0818 |
| CCc1ncnc(-c2ccc(C(=O)N3CCN(S(=O)(=O)CC)CC3)c(C)c2)c1C#Cc1ccc(N)nc1 [Example E-106] | 0.0443 |
| CCc1ncnc(-c2ccc(C(=O)N3CCN(C4CCCC4)CC3)c(C)c2)c1C#Cc1ccc(N)nc1 [Example E-114] | 0.0474 |
| CCc1ncnc(-c2ccc(C(=O)N3CCC(C(C)(C)O)CC3)c(OC)c2)c1C#Cc1ccc(N)nc1 [Example E-44] | 0.2 |
| CCc1ncnc(-c2ccc(C(=O)N3CCC(OC)CC3)c(Cl)c2)c1C#Cc1ccc(N)nc1 [Example E-24] | 0.0578 |
| CCc1ncnc(-c2ccc(C(=O)N3CCC4(CCN(C)CC4)CC3)c(Cl)c2)c1C#Cc1ccc(N)nc1 [Example E-26] | 0.338 |
| CCc1ncnc(-c2ccc(C(=O)N3CCC4(CCN(C)C4)C3)c(Cl)c2)c1C#Cc1ccc(N)nc1 (centres unmarked) [Example E-40] | 0.373 |
| CCc1ncnc(-c2ccc(C(=O)N3CCN(Cc4ccccc4)CC3)c(OC)c2)c1C#Cc1ccc(N)nc1 [Example E-69] | 0.531 |
| CCc1ncnc(-c2ccc(C(=O)N3CC[C@@H](N(C)C)C3)c(OC)c2)c1C#Cc1ccc(N)nc1 [Example E-56] | 0.452 |
| CCc1ncnc(-c2ccc(C(=O)N3CCN(CC4CCCCC4)CC3)c(OC)c2)c1C#Cc1ccc(N)nc1 [Example E-67] | 3.3 |
| CCc1ncnc(-c2ccc(C(=O)N3CC(O)CO3)c(C)c2)c1C#Cc1ccc(N)nc1 (centres unmarked) [Example E-93] | 0.152 |
| CCc1ncnc(-c2ccc(C(=O)N(C)C3CCS(=O)(=O)C3)c(Cl)c2)c1C#Cc1ccc(N)nc1 (centres unmarked) [Example E-80] | 0.113 |
| CCc1ncnc(-c2ccc(C(=O)N3CCN4CCC[C@H]4C3)c(Cl)c2)c1C#Cc1ccc(N)nc1 [Example E-141] | 0.0331 |
| CCc1ncnc(-c2ccc(C(=O)N(C)O)c(Cl)c2)c1C#Cc1ccc(N)nc1 [Example E-35] | 0.135 |
